According to PMC9792355:
These are yes or no findings as the source states them, for the method shown. Binding seen in cells or lysates may run through a third protein. Some results given as binding are weak or reduced against the parent protein; the word gives no strength.

Amino acid sequences for entries named in this document (tags omitted). A change or cut given only in a name is not applied to a line headed by its entry. Chains listed by the source or under a name are the forms on record and can include a tag or linker. Residues count along the entry.
C1-fused HCK (hematopoietic cell kinase), wildtype (P08631, residues 22-526): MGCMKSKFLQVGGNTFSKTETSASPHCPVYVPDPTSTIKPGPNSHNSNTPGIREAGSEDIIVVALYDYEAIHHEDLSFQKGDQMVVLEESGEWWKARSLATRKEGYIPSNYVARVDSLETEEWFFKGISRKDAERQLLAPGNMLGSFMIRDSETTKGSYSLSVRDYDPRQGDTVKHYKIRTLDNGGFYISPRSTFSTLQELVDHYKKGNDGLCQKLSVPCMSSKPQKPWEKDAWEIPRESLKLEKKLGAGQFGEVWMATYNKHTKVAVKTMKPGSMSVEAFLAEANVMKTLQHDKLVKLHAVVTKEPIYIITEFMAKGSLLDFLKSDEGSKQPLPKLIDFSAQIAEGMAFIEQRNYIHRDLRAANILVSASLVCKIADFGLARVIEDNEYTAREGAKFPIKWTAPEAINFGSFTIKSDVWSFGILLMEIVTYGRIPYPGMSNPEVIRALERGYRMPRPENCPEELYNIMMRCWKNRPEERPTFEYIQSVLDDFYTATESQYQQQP
C1-fused HCK Y30F K7R mutant (P08631, form named): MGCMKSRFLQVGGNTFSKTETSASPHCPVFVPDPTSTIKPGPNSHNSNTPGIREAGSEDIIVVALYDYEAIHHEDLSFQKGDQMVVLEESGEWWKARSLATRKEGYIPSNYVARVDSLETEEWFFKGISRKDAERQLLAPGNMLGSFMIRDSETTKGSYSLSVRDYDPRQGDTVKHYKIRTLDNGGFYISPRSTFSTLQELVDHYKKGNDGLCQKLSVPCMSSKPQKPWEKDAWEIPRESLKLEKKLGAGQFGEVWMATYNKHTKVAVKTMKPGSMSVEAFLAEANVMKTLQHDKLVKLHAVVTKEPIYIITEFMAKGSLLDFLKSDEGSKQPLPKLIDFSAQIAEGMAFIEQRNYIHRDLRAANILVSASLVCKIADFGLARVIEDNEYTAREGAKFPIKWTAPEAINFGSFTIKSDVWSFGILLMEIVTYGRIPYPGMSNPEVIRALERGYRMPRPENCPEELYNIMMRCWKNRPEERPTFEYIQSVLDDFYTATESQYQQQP
N1-fused HCK W234A Y390F mutant (P08631, form named): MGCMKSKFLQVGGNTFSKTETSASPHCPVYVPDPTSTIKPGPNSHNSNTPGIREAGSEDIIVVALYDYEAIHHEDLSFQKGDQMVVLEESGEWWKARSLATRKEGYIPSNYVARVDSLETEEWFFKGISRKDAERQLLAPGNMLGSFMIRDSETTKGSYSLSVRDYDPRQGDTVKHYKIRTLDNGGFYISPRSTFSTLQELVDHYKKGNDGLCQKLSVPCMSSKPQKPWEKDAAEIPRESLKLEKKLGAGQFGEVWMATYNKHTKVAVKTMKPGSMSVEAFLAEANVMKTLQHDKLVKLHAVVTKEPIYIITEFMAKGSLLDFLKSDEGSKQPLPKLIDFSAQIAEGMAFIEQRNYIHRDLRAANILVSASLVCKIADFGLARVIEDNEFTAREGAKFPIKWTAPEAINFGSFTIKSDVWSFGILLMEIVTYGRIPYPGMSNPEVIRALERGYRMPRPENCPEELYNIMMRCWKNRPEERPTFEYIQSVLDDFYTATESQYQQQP
N1-fused HCK P228A mutant (P08631, form named): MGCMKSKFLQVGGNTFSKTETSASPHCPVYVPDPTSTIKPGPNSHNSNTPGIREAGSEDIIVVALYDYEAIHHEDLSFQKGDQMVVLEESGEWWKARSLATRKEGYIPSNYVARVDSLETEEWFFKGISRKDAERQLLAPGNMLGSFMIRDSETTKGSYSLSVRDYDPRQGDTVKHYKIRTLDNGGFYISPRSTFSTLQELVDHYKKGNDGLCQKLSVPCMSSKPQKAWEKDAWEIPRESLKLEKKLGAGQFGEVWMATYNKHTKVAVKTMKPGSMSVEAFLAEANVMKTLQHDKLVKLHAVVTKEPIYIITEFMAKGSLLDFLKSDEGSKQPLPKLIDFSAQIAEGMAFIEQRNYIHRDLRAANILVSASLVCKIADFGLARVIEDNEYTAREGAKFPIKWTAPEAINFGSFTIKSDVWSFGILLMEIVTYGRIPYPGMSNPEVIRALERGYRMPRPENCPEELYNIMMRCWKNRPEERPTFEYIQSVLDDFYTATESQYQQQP
UniProt P07948: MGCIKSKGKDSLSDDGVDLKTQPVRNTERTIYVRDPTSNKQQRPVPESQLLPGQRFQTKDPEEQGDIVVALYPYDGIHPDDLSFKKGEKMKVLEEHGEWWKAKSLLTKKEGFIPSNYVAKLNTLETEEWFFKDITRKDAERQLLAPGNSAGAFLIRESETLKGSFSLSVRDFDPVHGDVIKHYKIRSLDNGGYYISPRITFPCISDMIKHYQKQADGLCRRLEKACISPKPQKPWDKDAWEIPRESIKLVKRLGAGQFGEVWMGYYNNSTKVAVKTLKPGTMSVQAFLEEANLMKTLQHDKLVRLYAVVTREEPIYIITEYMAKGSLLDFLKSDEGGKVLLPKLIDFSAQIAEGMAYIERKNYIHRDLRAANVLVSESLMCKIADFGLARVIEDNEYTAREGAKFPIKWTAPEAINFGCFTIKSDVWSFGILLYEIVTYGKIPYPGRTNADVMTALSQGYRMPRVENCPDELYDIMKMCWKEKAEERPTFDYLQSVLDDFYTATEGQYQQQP
UniProt P07947: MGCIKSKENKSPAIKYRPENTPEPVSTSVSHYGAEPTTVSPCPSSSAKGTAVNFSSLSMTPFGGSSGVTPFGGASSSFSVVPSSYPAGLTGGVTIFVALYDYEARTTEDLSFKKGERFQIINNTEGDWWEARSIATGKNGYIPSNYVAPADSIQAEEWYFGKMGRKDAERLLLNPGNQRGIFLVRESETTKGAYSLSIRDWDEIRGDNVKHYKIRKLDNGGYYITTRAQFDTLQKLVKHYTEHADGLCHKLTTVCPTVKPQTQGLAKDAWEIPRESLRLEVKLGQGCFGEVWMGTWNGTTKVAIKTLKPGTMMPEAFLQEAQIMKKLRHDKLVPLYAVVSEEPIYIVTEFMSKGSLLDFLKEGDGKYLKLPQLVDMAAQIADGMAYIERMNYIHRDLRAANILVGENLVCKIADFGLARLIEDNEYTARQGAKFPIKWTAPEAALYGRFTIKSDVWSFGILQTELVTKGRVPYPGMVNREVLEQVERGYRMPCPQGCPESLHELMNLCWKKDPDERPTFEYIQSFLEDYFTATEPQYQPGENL
UniProt P06239: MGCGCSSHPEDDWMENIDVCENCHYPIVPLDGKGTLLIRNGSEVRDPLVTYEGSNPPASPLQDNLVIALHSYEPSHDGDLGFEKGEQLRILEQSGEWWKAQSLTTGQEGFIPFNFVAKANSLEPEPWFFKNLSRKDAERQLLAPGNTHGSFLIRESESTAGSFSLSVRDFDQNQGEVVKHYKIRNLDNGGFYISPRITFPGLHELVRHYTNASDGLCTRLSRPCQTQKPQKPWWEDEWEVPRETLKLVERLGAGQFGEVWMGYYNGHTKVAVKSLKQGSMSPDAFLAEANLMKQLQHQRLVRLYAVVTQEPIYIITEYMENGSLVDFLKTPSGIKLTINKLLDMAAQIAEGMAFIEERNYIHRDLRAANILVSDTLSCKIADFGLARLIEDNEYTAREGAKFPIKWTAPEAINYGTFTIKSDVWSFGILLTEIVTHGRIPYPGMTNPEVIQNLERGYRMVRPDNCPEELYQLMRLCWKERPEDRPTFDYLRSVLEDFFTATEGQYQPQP
UniProt P06241: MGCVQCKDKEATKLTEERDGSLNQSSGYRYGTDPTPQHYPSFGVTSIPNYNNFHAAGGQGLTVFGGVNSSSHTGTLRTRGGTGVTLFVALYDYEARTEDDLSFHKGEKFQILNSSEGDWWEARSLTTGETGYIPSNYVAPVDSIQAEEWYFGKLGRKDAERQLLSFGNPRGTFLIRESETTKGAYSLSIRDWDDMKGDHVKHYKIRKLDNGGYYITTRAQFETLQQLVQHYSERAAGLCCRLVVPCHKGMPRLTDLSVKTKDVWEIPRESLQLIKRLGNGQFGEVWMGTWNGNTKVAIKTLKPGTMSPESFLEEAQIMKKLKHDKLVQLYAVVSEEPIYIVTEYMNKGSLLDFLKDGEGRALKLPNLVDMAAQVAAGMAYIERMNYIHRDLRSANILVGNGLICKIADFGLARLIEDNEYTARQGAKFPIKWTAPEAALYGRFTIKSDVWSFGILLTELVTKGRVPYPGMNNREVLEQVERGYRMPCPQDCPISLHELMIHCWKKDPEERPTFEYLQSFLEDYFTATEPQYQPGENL
UniProt Q9H3Y6: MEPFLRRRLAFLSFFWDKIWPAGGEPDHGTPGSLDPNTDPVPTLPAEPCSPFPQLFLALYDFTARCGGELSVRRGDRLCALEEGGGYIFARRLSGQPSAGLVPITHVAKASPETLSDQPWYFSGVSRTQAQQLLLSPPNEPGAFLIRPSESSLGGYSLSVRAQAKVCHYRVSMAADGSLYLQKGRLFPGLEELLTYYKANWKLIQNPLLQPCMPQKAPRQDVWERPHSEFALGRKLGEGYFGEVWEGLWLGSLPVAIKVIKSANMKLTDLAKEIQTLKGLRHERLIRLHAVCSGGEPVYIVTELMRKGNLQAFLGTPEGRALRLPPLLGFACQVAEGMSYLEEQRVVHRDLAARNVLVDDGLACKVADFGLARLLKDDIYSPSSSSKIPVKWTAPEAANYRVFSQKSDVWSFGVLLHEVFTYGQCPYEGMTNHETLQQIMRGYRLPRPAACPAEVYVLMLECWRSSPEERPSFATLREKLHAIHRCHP
UniProt O75563: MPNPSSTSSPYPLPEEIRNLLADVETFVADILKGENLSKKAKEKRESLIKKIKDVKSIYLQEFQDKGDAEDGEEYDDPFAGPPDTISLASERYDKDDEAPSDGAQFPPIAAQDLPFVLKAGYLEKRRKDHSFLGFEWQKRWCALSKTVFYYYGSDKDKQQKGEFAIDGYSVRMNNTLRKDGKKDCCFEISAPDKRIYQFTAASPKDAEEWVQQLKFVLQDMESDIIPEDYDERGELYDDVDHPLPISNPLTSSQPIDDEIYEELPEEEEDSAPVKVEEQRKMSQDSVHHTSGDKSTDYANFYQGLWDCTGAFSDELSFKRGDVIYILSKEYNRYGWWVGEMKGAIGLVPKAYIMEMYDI

How the values were obtained:
Assay in all cases: split reporter; Gaussia princeps luciferase complementation assay (GPCA) in HEK293T cells: Gluc2 on SKAP2/SKAP1, Gluc1 at the N (N1) or C (C1) terminus of the SRC kinase; 100 ng plasmid pair, luminescence read after lysis; normalized luminescence ratio (NLR), for mutants divided by that of wildtype SKAP2; loss of interaction = mean relative NLR among the nine kinases below 0.25
[1] = biological target: C1-fused HCK Y30F K7R mutant (UniProt P08631)
[2] = biological target: N1-fused HCK W234A Y390F mutant (UniProt P08631)
[3] = biological target: N1-fused HCK P228A mutant (UniProt P08631)
[4] = biological target: C1-fused HCK (hematopoietic cell kinase), wildtype (UniProt P08631)
[5] = biological target: C1-fused FGR (Feline Gardner-Rasheed sarcoma viral homolog) (UniProt P09769)
[6] = biological target: C1-fused LYN (LCK/Yes-related novel protein tyrosine kinase) (UniProt P07948)
C1-fused YES = C1-fused YES (UniProt P07947)
[7] = biological target: N1-fused LCK (lymphocyte-specific kinase) (UniProt P06239)
[8] = biological target: C1-fused LCK (lymphocyte-specific kinase) (UniProt P06239)
[9] = biological target: N1-fused FYN (FGR-YES1-related novel protein) (UniProt P06241)
[10] = biological target: N1-fused LYN (LCK/Yes-related novel protein tyrosine kinase) (UniProt P07948)
[11] = biological target: C1-fused SRMS (Src-related kinase lacking C-terminal regulatory tyrosine and N-terminal myristylation sites) (UniProt Q9H3Y6)
[12] = biological target: C1-fused FYN (FGR-YES1-related novel protein) (UniProt P06241)

Measured: binding

N2-SKAP2 (SRC kinase adaptor phosphoprotein 2, wildtype) (from UniProt O75563 1-359)
binds: [1] | [2] | [3]

B1: N2-SKAP1 (SRC kinase adaptor phosphoprotein 1) (protein, UniProt Q86WV1 1-359)
chain: MQAAALPEEIRWLLEDAEEFLAEGLRNENLSAVARDHRDHILRGFQQIKARYYWDFQPQGGDIGQDSSDDNHSGTLGLSLTSDAPFLSDYQDEGMEDIVKGAQELDNVIKQGYLEKKSKDHSFFGSEWQKRWCVVSRGLFYYYANEKSKQPKGTFLIKGYGVRMAPHLRRDSKKESCFELTSQDRRSYEFTATSPAEARDWVDQISFLLKDLSSLTIPYEEDEEEEEKEETYDDIDGFDSPSCGSQCRPTILPGSVGIKEPTEEKEEEDIYEVLPDEEHDLEEDESGTRRKGVDYASYYQGLWDCHGDQPDELSFQRGDLIRILSKEYNMYGWWVGELNSLVGIVPKEYLTTAFEVEER
not listed: [1] | [2] | [3]
binds: all other assays above
